The other results are listed elsewhere or left out. At the low end of the ranking, values are background and their order means little. The protein was read in a cell extract, so binding may be indirect.

The assay addresses T1, HNF4alpha2 (COS-7 nuclear extract) (UniProt P41235).
T1 sequence: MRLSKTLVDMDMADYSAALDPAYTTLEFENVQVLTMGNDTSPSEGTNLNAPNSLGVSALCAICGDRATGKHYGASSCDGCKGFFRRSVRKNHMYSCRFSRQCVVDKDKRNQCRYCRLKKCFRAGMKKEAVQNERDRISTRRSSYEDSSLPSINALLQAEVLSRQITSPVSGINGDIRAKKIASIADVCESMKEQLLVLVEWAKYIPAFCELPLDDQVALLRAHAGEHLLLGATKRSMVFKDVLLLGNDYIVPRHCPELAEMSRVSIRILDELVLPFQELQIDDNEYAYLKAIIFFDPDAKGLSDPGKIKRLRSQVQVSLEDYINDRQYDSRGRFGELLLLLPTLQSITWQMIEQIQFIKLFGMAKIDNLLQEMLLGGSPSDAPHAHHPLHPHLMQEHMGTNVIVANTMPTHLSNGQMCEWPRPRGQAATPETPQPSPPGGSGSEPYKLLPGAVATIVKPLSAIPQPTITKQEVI
In words: protein-binding microarray. The following applies: COS-7 nuclear extract on double-stranded Agilent 4x180k PBM; binding buffer, salt, pH and temperature not given; high values mean tight binding; double strand, one strand shown; sequences stand for … in …GCCTAGGGAGATTAGAGTATCGGTCGA
Regarding ACCAAGCAAGCCAGTCAGAATCTCTCTGTA, the binding signal (log2 normalized intensity) was -1.09.

In the case of CTTTGGCTGCAAAATTTGAACAAAAAAAGA, the binding signal (log2 normalized intensity) was -1.15.

As to GCAAAGGTCAGCTCATTCCCTAGGGCTCGG, the binding signal (log2 normalized intensity) was -0.876.

With GGCCAGTTTGATCACAAGACATGAAGATGC, the binding signal (log2 normalized intensity) is -0.708.

As for CGAGCTTCACCTTTGTCCTCTCTCCCACAA, the binding signal (log2 normalized intensity) was determined as 2.99.

For the sequence CTCAAAGTCTAACCCAACTAAGAACACAGT, the binding signal (log2 normalized intensity) is -0.363.

GAAAGGAGAAGCTGGAGATAAGGATAGAGG: the binding signal (log2 normalized intensity) is -1.2.

TTTATGACCTTTGACTGCAGAAGATAAGAA: the binding signal (log2 normalized intensity) is 3.94.

Take TTGAAGATAATCACCCGATAAGCTGACCCC: the binding signal (log2 normalized intensity) worked out at 5.46.

For the sequence TAGAGCTTTTGAGGGTGACCGATCGTTATT, the binding signal (log2 normalized intensity) was found to be 1.6.

As to TCAACATCAAAGGCCTTCCTATCTCTACTT, the binding signal (log2 normalized intensity) is -1.18.

CGCCTGCAGAAACTTTCTTTTTGTTGTTAG: the binding signal (log2 normalized intensity) worked out at 1.52.

Take CCCATCCCCAACAAAGCTCTGCATCCTTCC: the binding signal (log2 normalized intensity) was 1.39.

In the case of CCTTGTCTAAGCCCTTATCAAAAAGATAAG, the binding signal (log2 normalized intensity) was -1.11.

Regarding ACTTCATTCAGGTAGCAGGCCTCAGAGATA, the binding signal (log2 normalized intensity) was determined as 0.375.

As to TGTGCCCTCGGGTCCCACACACCTCAAATG, the binding signal (log2 normalized intensity) is -1.08.

Consider TTGTTCTATTAACCTGGCCAAACACCAAAT, for which the binding signal (log2 normalized intensity) came to 0.25.

On to GCGGTGCCATTCACAGGAATGTTGGCAGCA, for which the binding signal (log2 normalized intensity) was -1.04.

With TGAGGAAGGCTCTTTGTTCAGAGGGCATGT, the binding signal (log2 normalized intensity) is 1.95.

With AAGAAGTCCAAGGACTTATCCTTGGGACAT, the binding signal (log2 normalized intensity) is -1.12.

Turning to GGTCAGCAATGGTAATTACCTTCTAGTGGT, the binding signal (log2 normalized intensity) amounted to 0.405.

As to GAGGTCAAGATAAGATACGAAGGGTTTAAA, the binding signal (log2 normalized intensity) is -0.603.

On to CTATGTCCTTATCCTCATTGTGTGCAGACC, for which the binding signal (log2 normalized intensity) was found to be 1.99.

As for GCATACAAAACAACCACTCTTATCAGACAG, the binding signal (log2 normalized intensity) is -1.07.

Regarding AGCAAACCTGTCTCTCTGCATTCCTCCTGG, the binding signal (log2 normalized intensity) was -0.27.

In the case of ATACTATATTTGTCCCACATTAACTGTGCT, the binding signal (log2 normalized intensity) is -0.987.

On to ATTGAATTAAACACAGTTGCCTATGCCCTT, for which the binding signal (log2 normalized intensity) is 1.59.

As to TGAAAGTCAACAAGATTCCTTGAGCATTCC, the binding signal (log2 normalized intensity) is -1.16.

For TGGTGGCAATGTGTCAGAGAAGGAGCCAGA, the binding signal (log2 normalized intensity) is -1.15.

CAGGTGAGAGGCCTCTAAGCATAACTGGTT: the binding signal (log2 normalized intensity) was -1.06.

For CCCCAGAGGTGGAATCTATAGAGGCAGTGA, the binding signal (log2 normalized intensity) is -1.16.

With ACCTTTGTTCACATTTGTGCTCAGCCAACA, the binding signal (log2 normalized intensity) is -0.562.

With CCTATGGTATGTATGGAATGTCACTTTCTG, the binding signal (log2 normalized intensity) is 1.93.

Take CAGAGACATGCTAGCCTCGAGATAACCCAC: the binding signal (log2 normalized intensity) was -0.938.

Turning to AATGACAGTGTCAGGACCTTGCTCCTGTTC, the binding signal (log2 normalized intensity) worked out at 1.28.

Consider GGGCTAACGCTGCTGTCTGTCTTCGGGCGG, for which the binding signal (log2 normalized intensity) is -0.123.

Turning to ATAGGCACATATTGGATCTCTGGTATTTTG, the binding signal (log2 normalized intensity) was found to be 1.59.

For the sequence CAAAATCGCCACTACAAAGGGAATCAGGTT, the binding signal (log2 normalized intensity) is -0.856.

Turning to ACCCAGATAGGCAAAGTGGCTAGGACCTTT, the binding signal (log2 normalized intensity) came out at 2.25.

Consider ATGCGTCATCCGCATCTGAAGATAAGAGAA, for which the binding signal (log2 normalized intensity) is -1.

On to TTTTACAGACAGGCATGACAGAGTGTCCTG, for which the binding signal (log2 normalized intensity) was found to be 0.738.

On to ACCTCTGTAATAACTGCAGTGCCACTCGGG, for which the binding signal (log2 normalized intensity) was found to be 0.363.

Turning to TTCCGCGGACGTGTTCCCACAGTGCCCTCT, the binding signal (log2 normalized intensity) was 3.37.

Turning to CTGCCACATTTTTATCCTTTTTTGAAGGTT, the binding signal (log2 normalized intensity) amounted to 2.23.

Take TTCACCTTTGTCCTCTCTCCCACAAGGGCA: the binding signal (log2 normalized intensity) was determined as 2.31.

TGCGGAATGACATTCAGCAACTGGGTTCAG: the binding signal (log2 normalized intensity) stood at 1.01.

As for GGGGTCAAAGTCCCCTGAGCTTGAGTCCAT, the binding signal (log2 normalized intensity) is 5.36.

Turning to TCCTGACAATTGGCCAAAGTTCAGTAAATC, the binding signal (log2 normalized intensity) came out at 3.08.

Take ACTTTGCCTTTTGGCTAAAGTCCAAATTCC: the binding signal (log2 normalized intensity) is 5.14.

Take AAACCTTTGCCCCACTCTCCTCTGCCACTG: the binding signal (log2 normalized intensity) is 2.63.

As to ATCCTGCTAGCAGCTCTCTCCCTTATCTGA, the binding signal (log2 normalized intensity) was -1.07.

As to CGAACTAGCTTGGTGCAGGGGCGGGGCCGC, the binding signal (log2 normalized intensity) is -1.06.

Turning to GCGTGAGCCACCGCGCCCCGCCCCCAGTGC, the binding signal (log2 normalized intensity) worked out at 5.65.

As to GGTATGCATGGAATGCAGGAGATCCAGTAG, the binding signal (log2 normalized intensity) is -0.65.

TGAAATGGTTACAAAGGTCACACTCCTGTG: the binding signal (log2 normalized intensity) came to 4.16.

In the case of GTTCACTTGCCAAGCCTAGTTTTGATTATC, the binding signal (log2 normalized intensity) is -0.813.

With CTTAAGACCTAGATGGAATGTTGTGTCTTC, the binding signal (log2 normalized intensity) worked out at 0.882.

For CTAGTTAAGTCACTGGGCTGATGACCTTTG, the binding signal (log2 normalized intensity) worked out at 6.19.

Regarding CCTCCAGGGAGGGGAGAGGGGGTTAAAGGT, the binding signal (log2 normalized intensity) was 1.22.

Consider CATTCCACAGCAGAGGAGCCCTGGGCTCAG, for which the binding signal (log2 normalized intensity) is -1.09.

On to ATCGCCTAGTACTCCTGCCCCTGTGCAATA, for which the binding signal (log2 normalized intensity) was determined as 2.67.

For the sequence CAGGTGTAACAGTTGCAGCTTCAGGAGCTG, the binding signal (log2 normalized intensity) is -1.23.

With TGTATACTTATGTAGAAAGATATCTCTGTG, the binding signal (log2 normalized intensity) was determined as 0.374.

Regarding AGGGAGACAAAGTGTCACAAACTATCAGTG, the binding signal (log2 normalized intensity) was -1.18.

Turning to TGGTAAGCAGACCCCTACTGGGGATGGACT, the binding signal (log2 normalized intensity) was determined as 1.94.

Take TCTTGGGTCAAAGTCTCTGGTACAAAATTA: the binding signal (log2 normalized intensity) worked out at 2.41.

AGGTCGCAAGCACTGGCTCTGGGGTCAAAG: the binding signal (log2 normalized intensity) was 3.1.

Turning to AGTCCAGAACCTGGAACCTAGAGGCCTTTC, the binding signal (log2 normalized intensity) is -1.05.

On to CTGGTGGACTTTGCTCTGCTCATTTTTCCC, for which the binding signal (log2 normalized intensity) turned out to be 4.96.

TGCAATTCTCTTTGCCAAAGCATAGCAAGA: the binding signal (log2 normalized intensity) was -1.28.

In the case of TTCTAAAGAACATTCCAGCTTTGAAGTGCT, the binding signal (log2 normalized intensity) was -1.09.

AAAAACAACTAAAGGAATGCGCCTGAACTG: the binding signal (log2 normalized intensity) was -1.15.

Consider TACTTGAACCCTACTCATAATTGCTATGTC, for which the binding signal (log2 normalized intensity) turned out to be 0.51.

Values taken from publication PMC10726135.
